This data set deals with Escherichia coli (laboratory strain). The data set can be described thus: barcode share on antibiotic plates over drug-free plates; higher = less susceptible. As for the experimental part:
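A pool of E. coli strains, each edited to carry one amino-acid change in an essential protein, was grown for 48 h on minimal glucose agar with or without antibiotic; strain barcodes were sequenced; mean of two replicates.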

[1] abbreviates: antibiotic: carbenicillin, 2× MIC (3.1 µg/mL).
Where [2] appears, read: antibiotic: gentamicin, 2× MIC (MIC 0.45 µg/mL).

± gives the standard deviation of the averaged measurements. Laboratory Escherichia coli strains with one amino-acid change in an essential protein, pooled on minimal glucose agar with carbenicillin or gentamicin at twice the control MIC (plus kanamycin and chloramphenicol for the plasmids), 48 h. Fold change of barcode share against drug-free plates; higher = less susceptible. Active = above 20 in both replicates (the paper's putatively resistant). '<' = one read or none on drug, '>' = one read or none on a drug-free plate. Shares are relative, so most strains fall below 1 when a few take over. Listed are strains with at least 15 reads on both drug-free plates, and hits; most hits rest on fewer reference reads. Replicate rank correlation about 0.5. Edits are read from barcodes.

B1: adk I4W (protein)
chain: MRIWLLGAPGAGKGTQAQFIMEKYGIPQISTGDMLRAAVKSGSELGKQAKDIMDAGKLVTDELVIALVKERIAQEDCRNGFLLDGFPRTIPQADAMKEAGINVDYVLEFDVPDELIVDRIVGRRVHAPSGRVYHVKFNPPKVEGKDDVTGEELTTRKDDQEETVRKRLVEYHQMTAPLIGYYSKEAEAGNTKYAKVDGTKPVAEVRADLEKILG
On to B1, for which the “fold change of barcode share” value under setting [1] was 0.663 ± 0.13.

B2: adk I4Q (protein)
chain: MRIQLLGAPGAGKGTQAQFIMEKYGIPQISTGDMLRAAVKSGSELGKQAKDIMDAGKLVTDELVIALVKERIAQEDCRNGFLLDGFPRTIPQADAMKEAGINVDYVLEFDVPDELIVDRIVGRRVHAPSGRVYHVKFNPPKVEGKDDVTGEELTTRKDDQEETVRKRLVEYHQMTAPLIGYYSKEAEAGNTKYAKVDGTKPVAEVRADLEKILG
On to B2, for which the “fold change of barcode share” value under setting [1] is 0.502 ± 0.03 and the “fold change of barcode share” value under setting [2] was < 0.0171.

B3: dnaA I26A (protein)
chain: MSLSLWQQCLARLQDELPATEFSMWARPLQAELSDNTLALYAPNRFVLDWVRDKYLNNINGLLTSFCGADAPQLRFEVGTKPVTQTPQAAVTSNVAAPAQVAQTQPQRAAPSTRSGWDNVPAPAEPTYRSNVNVKHTFDNFVEGKSNQLARAAARQVADNPGGAYNPLFLYGGTGLGKTHLLHAVGNGIMARKPNAKVVYMHSERFVQDMVKALQNNAIEEFKRYYRSVDALLIDDIQFFANKERSQEEFFHTFNALLEGNQQIILTSDRYPKEINGVEDRLKSRFGWGLTVAIEPPELETRVAILMKKADENDIRLPGEVAFFIAKRLRSNVRELEGALNRVIANANFTGRAITIDFVREALRDLLALQEKLVTIDNIQKTVAEYYKIKVADLLSKRRSRSVARPRQMAMALAKELTNHSLPEIGDAFGGRDHTTVLHACRKIEQLREESHDIKEDFSNLIRTLSS
For B3, the “fold change of barcode share” value under setting [1] was 0.319 ± 0.13 and the “fold change of barcode share” value under setting [2] is < 0.0108.

B4: dnaA I26W (protein)
chain: MSLSLWQQCLARLQDELPATEFSMWWRPLQAELSDNTLALYAPNRFVLDWVRDKYLNNINGLLTSFCGADAPQLRFEVGTKPVTQTPQAAVTSNVAAPAQVAQTQPQRAAPSTRSGWDNVPAPAEPTYRSNVNVKHTFDNFVEGKSNQLARAAARQVADNPGGAYNPLFLYGGTGLGKTHLLHAVGNGIMARKPNAKVVYMHSERFVQDMVKALQNNAIEEFKRYYRSVDALLIDDIQFFANKERSQEEFFHTFNALLEGNQQIILTSDRYPKEINGVEDRLKSRFGWGLTVAIEPPELETRVAILMKKADENDIRLPGEVAFFIAKRLRSNVRELEGALNRVIANANFTGRAITIDFVREALRDLLALQEKLVTIDNIQKTVAEYYKIKVADLLSKRRSRSVARPRQMAMALAKELTNHSLPEIGDAFGGRDHTTVLHACRKIEQLREESHDIKEDFSNLIRTLSS
Take B4: the “fold change of barcode share” value reads like this: under setting [1], 0.232 ± 0.068; under setting [2], 0.0187 ± 0.011.

B5: dfp V325D (protein)
chain: MSLAGKKIVLGVSGGIAAYKTPELVRRLRDRGADVRVAMTEAAKAFITPLSLQAVSGYPVSDSLLDPAAEAAMGHIELGKWADLVILAPATADLIARVAAGMANDLVSTICLATPAPVAVLPAMNQQMYRAAATQHNLEVLASRGLLIWGPDSGSQACGDIGPGRMLDPLTIVDMAVAHFSPVNDLKHLNIMITAGPTREPLDPVRYISNHSSGKMGFAIAAAAARRGANVTLVSGPVSLPTPPFVKRVDVMTALEMEAAVNASVQQQNIFIGCAAVADYRAATVAPEKIKKQATQGDELTIKMVKNPDIVAGVAALKDHRPYVDGFAAETNNVEEYARQKRIRKNLDLICANDVSQPTQGFNSDNNALHLFWQDGDKVLPLERKELLGQLLLDEIVTRYDEKNRR
In the case of B5, the “fold change of barcode share” value came to 0.477 ± 0.26 under setting [1] and 0.164 ± 0.22 under setting [2].

B6: dfp V311Q (protein)
chain: MSLAGKKIVLGVSGGIAAYKTPELVRRLRDRGADVRVAMTEAAKAFITPLSLQAVSGYPVSDSLLDPAAEAAMGHIELGKWADLVILAPATADLIARVAAGMANDLVSTICLATPAPVAVLPAMNQQMYRAAATQHNLEVLASRGLLIWGPDSGSQACGDIGPGRMLDPLTIVDMAVAHFSPVNDLKHLNIMITAGPTREPLDPVRYISNHSSGKMGFAIAAAAARRGANVTLVSGPVSLPTPPFVKRVDVMTALEMEAAVNASVQQQNIFIGCAAVADYRAATVAPEKIKKQATQGDELTIKMVKNPDIQAGVAALKDHRPYVVGFAAETNNVEEYARQKRIRKNLDLICANDVSQPTQGFNSDNNALHLFWQDGDKVLPLERKELLGQLLLDEIVTRYDEKNRR
As to B6, the “fold change of barcode share” value by setting is: under setting [1], 0.287 ± 0.093; under setting [2], 0.0225 ± 0.024.

B7: dfp V325P (protein)
chain: MSLAGKKIVLGVSGGIAAYKTPELVRRLRDRGADVRVAMTEAAKAFITPLSLQAVSGYPVSDSLLDPAAEAAMGHIELGKWADLVILAPATADLIARVAAGMANDLVSTICLATPAPVAVLPAMNQQMYRAAATQHNLEVLASRGLLIWGPDSGSQACGDIGPGRMLDPLTIVDMAVAHFSPVNDLKHLNIMITAGPTREPLDPVRYISNHSSGKMGFAIAAAAARRGANVTLVSGPVSLPTPPFVKRVDVMTALEMEAAVNASVQQQNIFIGCAAVADYRAATVAPEKIKKQATQGDELTIKMVKNPDIVAGVAALKDHRPYVPGFAAETNNVEEYARQKRIRKNLDLICANDVSQPTQGFNSDNNALHLFWQDGDKVLPLERKELLGQLLLDEIVTRYDEKNRR
Regarding B7, the “fold change of barcode share” value was 0.344 ± 0.18 under setting [1] and < 0.0143 under setting [2].

B8: dfp L347Q (protein)
chain: MSLAGKKIVLGVSGGIAAYKTPELVRRLRDRGADVRVAMTEAAKAFITPLSLQAVSGYPVSDSLLDPAAEAAMGHIELGKWADLVILAPATADLIARVAAGMANDLVSTICLATPAPVAVLPAMNQQMYRAAATQHNLEVLASRGLLIWGPDSGSQACGDIGPGRMLDPLTIVDMAVAHFSPVNDLKHLNIMITAGPTREPLDPVRYISNHSSGKMGFAIAAAAARRGANVTLVSGPVSLPTPPFVKRVDVMTALEMEAAVNASVQQQNIFIGCAAVADYRAATVAPEKIKKQATQGDELTIKMVKNPDIVAGVAALKDHRPYVVGFAAETNNVEEYARQKRIRKNQDLICANDVSQPTQGFNSDNNALHLFWQDGDKVLPLERKELLGQLLLDEIVTRYDEKNRR
In the case of B8, the “fold change of barcode share” value was 0.307 ± 0.24 under setting [1] and < 0.0064 under setting [2].

B9: dfp V311A (protein)
chain: MSLAGKKIVLGVSGGIAAYKTPELVRRLRDRGADVRVAMTEAAKAFITPLSLQAVSGYPVSDSLLDPAAEAAMGHIELGKWADLVILAPATADLIARVAAGMANDLVSTICLATPAPVAVLPAMNQQMYRAAATQHNLEVLASRGLLIWGPDSGSQACGDIGPGRMLDPLTIVDMAVAHFSPVNDLKHLNIMITAGPTREPLDPVRYISNHSSGKMGFAIAAAAARRGANVTLVSGPVSLPTPPFVKRVDVMTALEMEAAVNASVQQQNIFIGCAAVADYRAATVAPEKIKKQATQGDELTIKMVKNPDIAAGVAALKDHRPYVVGFAAETNNVEEYARQKRIRKNLDLICANDVSQPTQGFNSDNNALHLFWQDGDKVLPLERKELLGQLLLDEIVTRYDEKNRR
On to B9, for which the “fold change of barcode share” value reads like this: under setting [1], 0.249 ± 0.087; under setting [2], < 0.00668.

B10: dfp L347A (protein)
chain: MSLAGKKIVLGVSGGIAAYKTPELVRRLRDRGADVRVAMTEAAKAFITPLSLQAVSGYPVSDSLLDPAAEAAMGHIELGKWADLVILAPATADLIARVAAGMANDLVSTICLATPAPVAVLPAMNQQMYRAAATQHNLEVLASRGLLIWGPDSGSQACGDIGPGRMLDPLTIVDMAVAHFSPVNDLKHLNIMITAGPTREPLDPVRYISNHSSGKMGFAIAAAAARRGANVTLVSGPVSLPTPPFVKRVDVMTALEMEAAVNASVQQQNIFIGCAAVADYRAATVAPEKIKKQATQGDELTIKMVKNPDIVAGVAALKDHRPYVVGFAAETNNVEEYARQKRIRKNADLICANDVSQPTQGFNSDNNALHLFWQDGDKVLPLERKELLGQLLLDEIVTRYDEKNRR
As for B10, the “fold change of barcode share” value was 0.268 ± 0.1 under setting [1] and < 0.00543 under setting [2].

B11: dfp V311W (protein)
chain: MSLAGKKIVLGVSGGIAAYKTPELVRRLRDRGADVRVAMTEAAKAFITPLSLQAVSGYPVSDSLLDPAAEAAMGHIELGKWADLVILAPATADLIARVAAGMANDLVSTICLATPAPVAVLPAMNQQMYRAAATQHNLEVLASRGLLIWGPDSGSQACGDIGPGRMLDPLTIVDMAVAHFSPVNDLKHLNIMITAGPTREPLDPVRYISNHSSGKMGFAIAAAAARRGANVTLVSGPVSLPTPPFVKRVDVMTALEMEAAVNASVQQQNIFIGCAAVADYRAATVAPEKIKKQATQGDELTIKMVKNPDIWAGVAALKDHRPYVVGFAAETNNVEEYARQKRIRKNLDLICANDVSQPTQGFNSDNNALHLFWQDGDKVLPLERKELLGQLLLDEIVTRYDEKNRR
Take B11: the “fold change of barcode share” value under setting [1] was 0.308 ± 0.04 and the “fold change of barcode share” value under setting [2] was < 0.00854.

B12: dfp L347P (protein)
chain: MSLAGKKIVLGVSGGIAAYKTPELVRRLRDRGADVRVAMTEAAKAFITPLSLQAVSGYPVSDSLLDPAAEAAMGHIELGKWADLVILAPATADLIARVAAGMANDLVSTICLATPAPVAVLPAMNQQMYRAAATQHNLEVLASRGLLIWGPDSGSQACGDIGPGRMLDPLTIVDMAVAHFSPVNDLKHLNIMITAGPTREPLDPVRYISNHSSGKMGFAIAAAAARRGANVTLVSGPVSLPTPPFVKRVDVMTALEMEAAVNASVQQQNIFIGCAAVADYRAATVAPEKIKKQATQGDELTIKMVKNPDIVAGVAALKDHRPYVVGFAAETNNVEEYARQKRIRKNPDLICANDVSQPTQGFNSDNNALHLFWQDGDKVLPLERKELLGQLLLDEIVTRYDEKNRR
Regarding B12, the “fold change of barcode share” value under setting [1] is 0.536 ± 0.19 and the “fold change of barcode share” value under setting [2] was < 0.00797.

B13: dfp V311D (protein)
chain: MSLAGKKIVLGVSGGIAAYKTPELVRRLRDRGADVRVAMTEAAKAFITPLSLQAVSGYPVSDSLLDPAAEAAMGHIELGKWADLVILAPATADLIARVAAGMANDLVSTICLATPAPVAVLPAMNQQMYRAAATQHNLEVLASRGLLIWGPDSGSQACGDIGPGRMLDPLTIVDMAVAHFSPVNDLKHLNIMITAGPTREPLDPVRYISNHSSGKMGFAIAAAAARRGANVTLVSGPVSLPTPPFVKRVDVMTALEMEAAVNASVQQQNIFIGCAAVADYRAATVAPEKIKKQATQGDELTIKMVKNPDIDAGVAALKDHRPYVVGFAAETNNVEEYARQKRIRKNLDLICANDVSQPTQGFNSDNNALHLFWQDGDKVLPLERKELLGQLLLDEIVTRYDEKNRR
Turning to B13, the “fold change of barcode share” value is 0.176 ± 0.13 under setting [1] and < 0.0142 under setting [2].

The values are drawn from the supplement of paper PMC11876631.
